Reference: publication PMC6919601, “Identification of Plasmodium dipeptidyl aminopeptidase allosteric inhibitors by high throughput screening” (PLoS ONE, 2019)
Where “and” joins values, the source holds several entries; their conditions need not be identical. Equal entries are not always repeated. Screen size: about 110,000 compounds; about 230 (0.21%) showed an effect of 50% or more. The list shows a part of the results.

Target: DPAP1 (Plasmodium falciparum, UniProt Q8IIJ9)
Assay: primary screen, percent inhibition; read by cleavage of a fluorogenic dipeptide substrate; higher = more effect of the substance
Set-up: species or system P. falciparum D10 trophozoite lysates; single well
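Note: 30 min substrate incubation versus DMSO and 10 µM JCP410 controls.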

DPAP1, sequence (Q8IIJ9 whole entry, looked up): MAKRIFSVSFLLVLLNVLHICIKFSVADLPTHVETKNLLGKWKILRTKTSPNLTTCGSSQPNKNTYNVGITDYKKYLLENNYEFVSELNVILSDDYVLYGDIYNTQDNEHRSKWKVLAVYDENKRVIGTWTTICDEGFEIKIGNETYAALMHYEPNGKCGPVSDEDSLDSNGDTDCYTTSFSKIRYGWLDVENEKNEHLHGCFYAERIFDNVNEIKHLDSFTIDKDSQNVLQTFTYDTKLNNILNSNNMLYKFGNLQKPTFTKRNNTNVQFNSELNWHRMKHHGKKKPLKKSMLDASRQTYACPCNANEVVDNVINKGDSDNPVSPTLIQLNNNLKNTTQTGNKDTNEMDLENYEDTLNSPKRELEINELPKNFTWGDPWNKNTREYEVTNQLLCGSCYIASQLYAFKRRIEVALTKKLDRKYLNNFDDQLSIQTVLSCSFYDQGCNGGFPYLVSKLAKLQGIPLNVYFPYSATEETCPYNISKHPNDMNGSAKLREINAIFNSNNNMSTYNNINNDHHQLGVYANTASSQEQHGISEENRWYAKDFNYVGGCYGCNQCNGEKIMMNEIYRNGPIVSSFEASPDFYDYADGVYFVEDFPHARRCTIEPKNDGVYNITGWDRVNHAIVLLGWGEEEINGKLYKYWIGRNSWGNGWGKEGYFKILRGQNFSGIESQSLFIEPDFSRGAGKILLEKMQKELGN

Going from `O=C(COc1ccc(Cl)cc1Br)Nc1ccc(S(=O)(=O)N2CCCCC2)cc1` to `O=C(CCCOc1ccc(Cl)cc1Cl)Nc1ccc(S(=O)(=O)N2CCCC2)cc1`, the “% Inhibition @ 10 uM” value falls from -1.44% to -2.94%.

First: COc1ccc(CNC(=O)CNS(=O)(=O)c2ccc(Cl)cc2)cc1
Second: Cc1ccc(S(=O)(=O)NC(=O)COc2ccccc2)cc1
The “% Inhibition @ 10 uM” value of the first is lower: -6.37% for the first, 0.389% for the second.

First: CCCCN(C)CCCNC(=O)CCCn1c2ccccc2c2cnnc(O)c21
Second: CCCCNC(=O)c1[nH]nnc1-c1ccccc1O
The “% Inhibition @ 10 uM” value of the first is higher: 1.38% for the first, 0.847% for the second.

Compared with `Cc1nc2cccnc2n1-c1ccc(CCC(=O)O)cc1`, `Cc1cc(C)n(-c2nc3ccccc3n3c(CCC(=O)O)nnc23)n1` is lower in “% Inhibition @ 10 uM” value: 4.79% for the first, -5.98% for the second.

Compared with `COc1ccc(CCNS(=O)(=O)c2cc(C)ccc2C)cc1OC`, `COc1ccc(CCNCc2ccc(C)cc2)cc1OC` is higher in “% Inhibition @ 10 uM” value: -1.59% for the first, 0.131% for the second.

First: Cc1cc(C)c(C#N)c(SCC(=O)Nc2nccs2)n1
Second: Cc1csc(NC(=O)CSc2nnc(Cc3cccn3C)n2C)n1
The “% Inhibition @ 10 uM” value of the first is higher: 1.6% for the first, -0.0593% for the second.

Going from `C=CCOc1ccc(C(=O)C2=C(O)C(=O)N(CCN3CCOCC3)C2c2ccc(F)cc2)c(C)c1` (stereo not shown) to `COCCN1C(=O)C(O)=C(C(=O)c2ccc(OC)c(C)c2)C1c1ccc(F)cc1` (stereo not shown), the “% Inhibition @ 10 uM” value rises from -1.93% to 1.86%.

Compared with `CC1=C(C(N)=O)C(c2ccccc2OC(F)F)n2ncnc2N1` (stereo not shown), `CCc1ccc(C2CC(c3cccc(Br)c3)n3ncnc3N2)cc1` (stereo not shown) is lower in “% Inhibition @ 10 uM” value: -0.403% for the first, -11% for the second.

Going from `CCCC1=NN(C(=O)c2ccc(OC)cc2)C(O)(C(F)(F)F)C1` (stereo not shown) to `O=C(COc1ccc(Cl)cc1)Nc1ccccc1C(F)(F)F`, the “% Inhibition @ 10 uM” value falls from 12.4% to 7.15%.

First: CS(=O)(=O)N(CC(=O)Nc1ccccc1-c1ccccc1)c1ccc(F)cc1
Second: CCN(CC)C(=O)CN(c1ccc(C)cc1)S(=O)(=O)c1ccc(F)cc1
The “% Inhibition @ 10 uM” value of the first is higher: 5.31% for the first, 0.873% for the second.

Going from `COc1ccc(-c2[nH]nc3c2C(c2ccc(Br)cc2)C(C#N)=C(N)O3)cc1` (stereo not shown) to `COc1cccc(C2C(C(=O)c3ccc(Br)cc3)=C(O)C(=O)N2c2cccnc2)c1` (stereo not shown), the “% Inhibition @ 10 uM” value falls from 5.83% to 1.05%.

Compared with `Cc1csc(-c2coc3cc(O)cc(C)c3c2=O)n1`, `COC(=O)c1c(NC(=O)COc2ccc3c(C)cc(=O)oc3c2)sc2c1CCCC2` is higher in “% Inhibition @ 10 uM” value: -1.96% for the first, 11.8% for the second.

First: NC(=O)c1ccccc1NC(=O)C1CCCCC1C(=O)O (stereo not shown)
Second: O=C(O)C1C2CCC(O2)C1C(=O)Nc1ccccc1Cl (stereo not shown)
The “% Inhibition @ 10 uM” value of the first is lower: -0.992% for the first, 0.231% for the second.

First: O=C(/C=C/c1ccc(Cl)cc1)C1CC1
Second: O=C(NCC1CCCO1)c1ccc(F)cc1 (stereo not shown)
The “% Inhibition @ 10 uM” value of the first is higher: 11.9% for the first, -0.414% for the second.

First: CN(C)c1cc(N)c2ccccc2n1
Second: Cc1cc(C)n2nc(COc3ccccc3)nc2n1
The “% Inhibition @ 10 uM” value of the first is higher: -2.15% for the first, -6.04% for the second.

Going from `O=C(CCn1c(=O)c2cccn2c2cccnc21)NCCc1ccccc1` to `Cc1nn(CC(=O)NCc2ccccc2)c(=O)c2cccn12`, the “% Inhibition @ 10 uM” value falls from 2.83% to -6.82%.

Going from `CC(CCc1ccccc1)NC(=O)c1ccc2nc(N3CCCCC3)sc2c1` (stereo not shown) to `c1ccc2c(NCCN3CCCCC3)c3c(nc2c1)CCC3`, the “% Inhibition @ 10 uM” value rises from -2.37% to 2.74%.

Compared with `Cc1ccc(-n2c(C)cc(/C=C3\C(=N)N4N=C(N5CCOCC5)SC4=NC3=O)c2C)cc1Cl`, `COc1cccc(/C=C2/C(=N)N3N=C(C4CCCCC4)SC3=NC2=O)c1O` is higher in “% Inhibition @ 10 uM” value: -1.66% for the first, 5% for the second.

Going from `CC(=O)c1cc(C(=O)Nc2ccccc2C(=O)O)oc1C` to `Cc1cc(C)c(NC(=S)NC(=O)c2ccccc2)c(C)c1`, the “% Inhibition @ 10 uM” value rises from -0.171% to 15.4%.

Going from `Cc1ccc(S(=O)(=O)NCCCOC(=O)Nc2nonc2C)cc1` to `Cc1ccc(S(=O)(=O)c2sc(N)c(C#N)c2C)cc1`, the “% Inhibition @ 10 uM” value rises from -3.69% to 1.84%.

Going from `CC(NC(=O)c1ccco1)c1nc(-c2ccc(C(C)(C)C)cc2)no1` (stereo not shown) to `Cc1onc(-c2ccccc2)c1C(=O)NC1=NCCS1`, the “% Inhibition @ 10 uM” value rises from -8.39% to -5.82%.

Going from `COCc1c(Br)c(C)nc(N2CCOCC2)c1C#N` to `CC(C)C[C@H](NC(=O)c1cc2cc(OCCN3CCOCC3)ccc2o1)C(=O)NCC#N`, the “% Inhibition @ 10 uM” value falls from 0.776% to 0.173%.

Going from `Cc1ccccc1N1C(=O)C(Cl)=C(Nc2ccccc2)C1=O` to `Cc1ccccc1NC(=O)CN1C(=O)c2ccccc2C1=O`, the “% Inhibition @ 10 uM” value rises from -0.864% to 0.545%.

First: Cc1c(CNCCCc2ccccc2)c(C(=O)O)c(C)n1Cc1ccc(F)cc1Cl
Second: CCN(CC)CCn1c(NC(=O)c2ccc(Cl)cc2Cl)nc2ccccc21
The “% Inhibition @ 10 uM” value of the first is higher: -3.67% for the first, -5.47% for the second.

Compared with `Cc1ccc(NC(=O)CCCOc2ccccc2C)cc1`, `CC1=CC(C)(C)N(C(=O)Nc2ccc(C)cc2)c2ccccc21` is lower in “% Inhibition @ 10 uM” value: -1.11% for the first, -1.36% for the second.

First: CCCCc1ccc(C2C(C#N)=C(N)OC(C)=C2C(=O)OCC)s1 (stereo not shown)
Second: CCOC(=O)C1=C(C)N=c2s/c(=C\c3ccc(N(C)C)o3)c(=O)n2C1c1cccs1 (stereo not shown)
The “% Inhibition @ 10 uM” value of the first is higher: 11.2% for the first, -3.98% for the second.

Compared with `Cc1ccc(C)n1-c1nnc(N2CCCC(C(=O)O)C2)s1` (stereo not shown), `CCCc1nc(C)cc(N2CCCC(C)C2)n1` (stereo not shown) is higher in “% Inhibition @ 10 uM” value: -5.15% for the first, 11.1% for the second.

Compared with `CC1(C)CC2=Nc3nc(C(F)(F)F)nn3C(c3ccc(F)c(Br)c3)C2=C(O)C1` (stereo not shown), `CC(C)Sc1nc(O)c2cnn(-c3ccccc3)c2n1` is higher in “% Inhibition @ 10 uM” value: 0.0842% for the first, 1.9% for the second.

First: CCOC(=O)c1c(NC(C)=O)sc2c1CCN(C(=O)OCC)C2
Second: CCOC(=O)c1c(NC(=O)CSc2nc(SC)ns2)sc2c1CCCC2
The “% Inhibition @ 10 uM” value of the first is higher: 3.01% for the first, -4.75% for the second.

First: Cc1cccc(C2NC(c3cccc(C)c3)C(C)C(=O)C2C)c1 (stereo not shown)
Second: Cc1cccc(C(=O)Nc2ccc(NC(=O)c3cccc(C)c3)c([N+](=O)[O-])c2)c1
The “% Inhibition @ 10 uM” value of the first is lower: -4.51% for the first, 1.66% for the second.

First: Oc1oc(-c2ccccc2)nc1/C=N/c1ccccn1
Second: Cc1cccc(-c2cc(C(=O)N3CCN(c4ncccn4)CC3)c3ccccc3n2)c1
The “% Inhibition @ 10 uM” value of the first is higher: 7.62% for the first, 2.32% for the second.

First: Cn1c(=O)c2c(nc3n(C4CCCCC4)c(-c4ccc(Cl)cc4)cn23)n(C)c1=O
Second: COc1cccc(/C=C2\C(=O)N(c3ccc(Cl)cc3)N=C2C)c1OC
The “% Inhibition @ 10 uM” value of the first is lower: -4.91% for the first, 0.716% for the second.

Compared with `N#Cc1ccccc1Sc1ccccc1C(=O)NCc1ccc2c(c1)OCO2`, `COC(=O)c1ccc(C2Oc3ccccc3C3CC(c4ccccc4O)=NN32)cc1` (stereo not shown) is lower in “% Inhibition @ 10 uM” value: 7.93% for the first, 0.0719% for the second.

First: Cc1ccc(OCC(=O)Nc2ccc(CC#N)cc2)cc1C
Second: CCC(C)(C)C(=O)Nc1ccc(C(N)=O)cc1
The “% Inhibition @ 10 uM” value of the first is lower: -1.52% for the first, 1.29% for the second.

Going from `COc1cc(/C=C/C(=O)Nc2nnc(CC(C)(C)C)s2)cc(OC)c1OC` to `COc1ccc(-c2ccnc3c(OC)ccc(N)c23)cc1OC`, the “% Inhibition @ 10 uM” value falls from 8.12% to 4.27%.

Going from `O=C(O)/C(S)=C\c1ccccc1` to `CC1=CC(=O)C=C(C)C1=NOC(=O)/C=C\c1ccccc1`, the “% Inhibition @ 10 uM” value falls from 19.2% to 3.34%.

First: Fc1ccc(CN2CCN(c3ccc(Cl)cc3)CC2)cc1
Second: c1ccc(N2CCN(Cc3ccoc3)CC2)nc1
The “% Inhibition @ 10 uM” value of the first is higher: 5.55% for the first, 4.81% for the second.

Compared with `CN(Cc1ccccc1F)CC(O)c1ccccc1` (stereo not shown), `N#CCNC(=O)[C@H](CSCc1ccccc1)NC(=O)c1cccs1` is lower in “% Inhibition @ 10 uM” value: -3.8% for the first, -6.56% for the second.

Compared with `COc1ccc(/C=C2/SC(=O)N(CCc3nnc(N)s3)C2=O)cc1`, `CCCCOc1ccc(C2c3c(-c4cc(C)ccc4O)n[nH]c3C(=O)N2CCO)cc1OC` (stereo not shown) is lower in “% Inhibition @ 10 uM” value: 3.16% for the first, -1.15% for the second.

Compared with `O=C1CSC(c2cccc(Cl)c2Cl)N1c1ccccn1` (stereo not shown), `O=C1/C(=C/c2cccnc2)Sc2ccccc21` is higher in “% Inhibition @ 10 uM” value: -3.69% for the first, -1.59% for the second.

First: CCOC(=O)N1CCN(C(=O)Cn2sc3nc(C)cc(C)c3c2=O)CC1
Second: CCOC(=O)N1CCC(NC(=O)CN2C(=O)CSc3nc(C)cc(C)c32)CC1
The “% Inhibition @ 10 uM” value of the first is higher: 9.33% for the first, -2.37% for the second.

First: COc1cccc(-c2nnc(-c3ccncc3)o2)c1
Second: Cc1ccc(C2=NN3C(C2)c2ccccc2OC3c2ccncc2)cc1 (stereo not shown)
The “% Inhibition @ 10 uM” value of the first is lower: 2.41% for the first, 38.7% for the second.

Compared with `CCOC(=O)c1nnn(-c2nonc2N)c1CSc1nc2cc(C)ccc2[nH]1`, `Nc1nc(N)c2ncc(C(=O)CCc3ccccc3)nc2n1` is lower in “% Inhibition @ 10 uM” value: 6.37% for the first, -6.07% for the second.

Going from `COCC(C)NC(=O)Cn1nc(C)c(NC(=O)c2cc(-c3ccccc3F)no2)c1C` (stereo not shown) to `CC(C)C[C@H](Nc1nc(-c2ccc([N+](=O)[O-])cc2)cs1)C(=O)NCC#N`, the “% Inhibition @ 10 uM” value falls from 5.59% to -4.72%.

First: CCS(=O)(=O)N1CCC2(CC1)OC(=O)C(C)=C2C(=O)N1CCN(c2ncccn2)CC1
Second: Cc1ccc(S(=O)(=O)c2nc(S(C)(=O)=O)sc2N2CCC(C(N)=O)CC2)cc1
The “% Inhibition @ 10 uM” value of the first is higher: 2.91% for the first, -5.89% for the second.

First: CC(C)=CCCC(C)CN(CCO)Cc1ccccc1 (stereo not shown)
Second: OCCN(Cc1ccccc1)CC1CC=CCC1 (stereo not shown)
The “% Inhibition @ 10 uM” value of the first is higher: 2.7% for the first, 1.38% for the second.

Going from `O=C1NC(=O)/C(=C\c2ccc(Sc3ccc(Cl)cc3)o2)N1` to `NC(=O)c1c(NS(=O)(=O)c2ccc(F)cc2)sc2c1CCCC2`, the “% Inhibition @ 10 uM” value falls from 5.37% to -3.44%.

Going from `CC(C)N1CC(C)C(O)(c2ccccc2)CC1C` (stereo not shown) to `CN1CCC(O)(c2ccccc2)C(C)(C)C1` (stereo not shown), the “% Inhibition @ 10 uM” value rises from -1.93% to 1.41%.

First: CCCCC(O)(CCCC)c1ccccc1O
Second: CCCC[C@H](NC(=O)[C@H](CCC)N[C@@H](c1ccc(-c2ccc(S(C)(=O)=O)cc2)cc1)C(F)(F)F)C(=O)c1nnc(-c2ccco2)o1
The “% Inhibition @ 10 uM” value of the first is higher: -2.44% for the first, -3.04% for the second.

First: CCCCSc1nc2c(c(=O)n1C)SC(C)C2 (stereo not shown)
Second: CCn1c(=S)[nH]c2sc3c(c2c1=O)CCC3
The “% Inhibition @ 10 uM” value of the first is lower: 1.97% for the first, 64.7% for the second.

First: CC1CCN(C(=O)CN(c2cccc(F)c2)S(C)(=O)=O)CC1
Second: COc1ccc(C2(C(=O)N3CCCCC3)CCCC2)cc1OC
The “% Inhibition @ 10 uM” value of the first is lower: 2.95% for the first, 6.16% for the second.

With `O=C(O)CCC(=O)Nc1ccc(NC(=O)c2ccco2)cc1` the “% Inhibition @ 10 uM” value was 0.777% and -2.29%.
